# Out of some 350,000 compounds screened, about 9,900 (2.8%) were called active. The shares of active, inactive and inconclusive entries below differ from those in the screen. Calls follow the shape of the dose curve; as a rule, active = well fitted activation curve with a large enough effect; inconclusive = small, poorly fitted or top-dose-only effect; inactive = no such curve, though single readings can be large or run the other way. Potencies of inconclusive entries are left out as doubtful fits.
# Assay: A quantitative high throughput screen for small molecules that induce DNA re-replication in MCF 10a normal breast cells. Also: nearly all actives have a fitted effect of over 50% in size.
# Details: MCF 10A DNA re-replication, Hoechst nuclear intensity, 48 h; series mostly up to 46.1 µM
# Potency is read from the fitted curve at half-maximal effect; tags tell the direction and shape of the fitted curve.
row,SMILES,Potency
1,O=C(/C=C\Nc1ccc(Br)cc1)c1cccnc1,"inconclusive [activator, partial curve, poor fit]"
2,CCC(C)(C)NC(=O)C(c1ccc(C)o1)N(Cc1cccs1)C(=O)Cn1nnc2ccccc21 (configuration not stated),"inconclusive [activator, partial curve, poor fit]"
3,CCOC(=O)/C=C/C(=O)OCc1csc(CC(=O)Nc2ccccc2C)n1,"inconclusive [activator, single point]"
4,CC(C)(C)C1C/C(=C/c2ccco2)C(=O)/C(=C/c2ccco2)C1 (configuration not stated),"inconclusive [activator, single point]"
5,O=C(NCc1cccnc1)c1c[nH]c2cc3c(cc2c1=O)OCCO3,inactive
6,COc1ccc(C2Nc3ccccc3C(=O)N2Cc2ccco2)cc1COc1ccc([N+](=O)[O-])cc1 (configuration not stated),inactive
7,CCc1cc2c(C)ccc(C)c2nc1SCC(=O)Nc1cc(C)on1,inactive
8,Cc1cc(C)c2c(=O)n(CC(=O)Nc3cccc(Cl)c3C)sc2n1,"inconclusive [activator, single point]"
9,Cc1cc(C)c2sc(N(CCCN(C)C)C(=O)c3ccc(S(=O)(=O)N4CCCc5ccccc54)cc3)nc2c1,"inconclusive [activator, single point]"
10,CCOc1ccc(-c2cc(C(=O)N/N=C(\C)c3cccnc3)c3ccccc3n2)cc1,"inconclusive [activator, full curve]"
11,CCN1C(=O)[C@@H]2Cc3c([nH]c4ccccc34)C(c3ccc(OC)cc3)N2C1=S (some centres not stated),active: 20.6 µM
12,O=C(c1cccc(S(=O)(=O)N2CCc3ccccc3C2)c1)N1CCN(c2ccc(O)cc2)CC1,"inconclusive [activator, full curve]"
13,CC(C)Cn1c(C(C)C)nc([N+](=O)[O-])c1S(=O)(=O)c1ccc(F)cc1,active: 20.6 µM
14,COc1ccc(C2=NN(C(=O)COC(=O)c3ccc(S(C)(=O)=O)c([N+](=O)[O-])c3)C(c3ccco3)C2)cc1 (configuration not stated),"inconclusive [activator, single point]"
15,N#Cc1c(NC(=O)CSc2nc3c(c(C(F)(F)F)n2)CCc2ccccc2-3)sc2c1CCCC2,inactive
16,Cc1ccc(CN(Cc2ccccc2)C(=S)Nc2ccccc2C)o1,"inconclusive [activator, partial curve, poor fit]"
17,Cn1c(CNC(=O)OC(C)(C)C)nnc1SCC(=O)N1CCOCC1,inactive
18,CCc1ccc(NC(=O)CSc2nc3ccccc3nc2N2CCCC2)cc1,"inconclusive [activator, single point]"
19,CCOC(=O)C(=O)Nc1nnc(SCc2ccc(F)cc2)s1,"inconclusive [activator, full curve, poor fit]"
20,Nc1c(S(=O)(=O)c2cc(Cl)ccc2Cl)c2nc3ccccc3nc2n1CCN1CCOCC1,"inconclusive [activator, single point]"
21,O=C(Nc1nc2ccccc2s1)c1ccc(Cl)s1,inactive

row,SMILES,Potency
1,COC(=O)[C@@]12CCCCN1[C@H](c1ccc(-c3ccc(F)cc3)c(OC)c1)[C@H]1C(=O)N(C)C(=O)[C@H]12,inactive
2,CC1CCc2cc(F)cc3c(=O)c(C(=O)O)cn1c23 (configuration not stated),inactive
3,CCOc1ccccc1N(CC(=O)NC1CCCC1)S(=O)(=O)c1ccc(C)cc1,inactive
4,O=c1cc(CO)[nH]cc1OCc1ccccc1,inactive
5,O=C(NCC1CCCCN1)c1cc(OCC(F)(F)F)ccc1OCC(F)(F)F (configuration not stated),"inconclusive [activator, partial curve, poor fit]"
6,Cc1ccc(-c2nnc(CSc3nc4cc5c(cc4cc3C)OCO5)o2)cc1,"inconclusive [activator, single point]"
7,CN(CC(=O)NCCc1ccc(S(N)(=O)=O)cc1)CC(=O)Nc1ccccc1Cl,inactive
8,O=C(Nc1nc2ccc(S(=O)(=O)N3CCCC3)cc2s1)c1cccs1,"inconclusive [activator, partial curve, poor fit]"
9,CCN(CC)c1ccc(/C=N/NS(=O)(=O)c2cccc([N+](=O)[O-])c2)cc1,"inconclusive [activator, partial curve, poor fit]"
10,CC(C)[C@@H](CO)NS(=O)(=O)c1ccc(Br)cc1F,"inconclusive [activator, full curve, poor fit]"
11,O=C1Nc2cc(C(=O)N3CCN(c4ccccn4)CC3)ccc2S/C1=C\c1ccccc1,"inconclusive [activator, single point]"
12,CCCCOc1ccc(OCCCN2CCOCC2)cc1,"inconclusive [activator, partial curve, poor fit]"
13,CCC(=O)c1cc2c(C)cc(=O)oc2c(C)c1OC(C)=O,"inconclusive [activator, partial curve, poor fit]"
14,C/C(CC1CC(C)OC1=O)=N\NC(N)=S (configuration not stated),inactive
15,O=C(NCc1cccnc1)c1c(O)c2cccc3c2n(c1=O)CCC3,"inconclusive [activator, partial curve, poor fit]"
16,Cc1cccc2c(SCC(=O)NCC3CCCO3)nc(-c3ccc(F)cc3)nc12 (configuration not stated),"inconclusive [activator, single point]"
17,COc1cc(NC(=O)c2ccco2)c(C(=O)OCC(=O)c2c[nH]c3ccccc23)cc1OC,active: 23.1 µM
18,O=C(CN1C(=O)NC2(CCc3ccccc32)C1=O)Nc1cccc(F)c1 (configuration not stated),"inconclusive [activator, single point]"
19,Cc1cc(N2CCCCC2)ccc1[N+](=O)[O-],"inconclusive [activator, single point]"
20,CCOC(=O)C1C(=O)C=C(c2cccs2)CC1c1ccccc1C (configuration not stated),"inconclusive [activator, single point]"
21,CC1(C)CC(NS(=O)(=O)c2ccc(C(C)(C)C)cc2)CC(C)(C)N1,"inconclusive [activator, single point]"
